# The whole screen tested about 350,000 compounds, of which about 180 (0.051%) were called active. This list was built around the results that the source calls inconclusive (neither active nor inactive); the mix of calls is not that of the screen.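 Rule for the calls: active = mean replicate inhibition above about 25%, with every replicate also reaching it (limit read from the data, passing the limit was not always enough); inconclusive = only one of those two criteria met; inactive = neither criterion met.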
# Target: Protein disulfide-isomerase A6 (Homo sapiens) (UniProt Q15084)
# Experiment: inhibitors of ERp5-driven insulin aggregation, primary screen, biochemical, turbidity, absorbance 650 nm, single point (AID 651711)
# Settings: 90 min, at 9.99 µM, stronger effect = higher value
# Chain of UniProt Q15084 (Q15084 whole entry, looked up): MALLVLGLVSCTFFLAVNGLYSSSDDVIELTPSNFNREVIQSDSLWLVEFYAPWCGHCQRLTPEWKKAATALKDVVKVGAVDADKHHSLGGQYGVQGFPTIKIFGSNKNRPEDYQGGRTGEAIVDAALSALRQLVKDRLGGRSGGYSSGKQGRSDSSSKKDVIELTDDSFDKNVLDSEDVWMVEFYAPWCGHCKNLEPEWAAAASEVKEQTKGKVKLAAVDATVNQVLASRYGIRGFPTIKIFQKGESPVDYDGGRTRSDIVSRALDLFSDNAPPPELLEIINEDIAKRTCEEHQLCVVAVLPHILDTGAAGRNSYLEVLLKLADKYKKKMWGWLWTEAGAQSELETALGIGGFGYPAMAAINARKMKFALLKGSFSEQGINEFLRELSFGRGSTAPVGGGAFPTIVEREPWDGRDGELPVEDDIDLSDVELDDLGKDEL
row,Structure (SMILES),inhibition
1,CCn1cc(C(=O)O)c(=O)c2cc(F)c(N3CCN(C(=S)Nc4ccc(OC)cc4)CC3)cc21,inconclusive: 38.3%
2,CSc1ncc(CN2CCN(C3CCN(C(C)C)CC3)C(CCO)C2)cn1 (configuration not stated),inconclusive: 51.2%
3,CCCNC(=O)N1CC2(CCN(C(=O)CCC)CC2)c2c(n(C)c3cc(OC)ccc23)[C@H]1CO,inactive: 2.86%
4,CCOc1ccc(C(=O)NCC(=O)N2CCCC2)cc1,inconclusive: 36.7%
5,Cc1ccc(-c2nnc(COC(=O)c3ccco3)o2)cc1,inactive: 5.69%
6,Cc1cc(C)c(S(=O)(=O)Nc2ccccc2C(=O)OCC(=O)NCc2ccccc2)c(C)c1,inconclusive: 45.4%
7,CN1CCN(C(=O)CN(c2ccccc2)S(=O)(=O)N(C)C)CC1,inconclusive: 31.1%
8,O=C(O)C1CCCCC1C(=O)NCCCn1ccnc1 (configuration not stated),inconclusive: 51.3%
9,CCOC(=O)/C=c1\s/c(=C\c2ccc(C(=O)OC)cc2)c(=O)n1CC(=O)Nc1ccccc1,inconclusive: 36.1%
10,CC1CCCC(NC(=O)CCCn2c(=S)[nH]c3ccccc3c2=O)C1C (configuration not stated),inconclusive: 35.8%
11,CC(C)NC(=O)N[C@@H]1C=C[C@@H](CC(=O)NCc2ccc(Oc3ccccc3)cc2)O[C@H]1CO,inactive: 6.35%
12,CC(Oc1ccccc1)C(=O)Nc1nnc(S(=O)(=O)Nc2ccccc2)s1 (configuration not stated),inconclusive: 44.7%
13,CO[C@@H]1CN(C)C(=O)c2cc(NC(=O)Nc3ccccc3)ccc2OC[C@H](C)N(C(=O)CN(C)C)C[C@H]1C,inactive: 3.58%
14,Cc1cc(S(=O)(=O)N2CCOCC2)ccc1OCC(=O)Nc1ccc(Br)cc1F,inactive: -4.6%
15,O=C(NNC(=S)NCc1ccco1)C(c1ccccc1)c1ccccc1,inconclusive: 36.9%
16,CCC(CC)c1nnc(NC(=O)c2cccc(S(=O)(=O)N3CCc4ccccc43)c2)s1,inconclusive: 35.2%
17,COc1ccccc1CNC(=O)/C=C/c1ccc(S(=O)(=O)N2CCOCC2)cc1,inconclusive: 40.5%
18,COc1ccc(CCN2C(=O)[C@@]3(Cc4ccccc42)c2ccccc2C(=O)N(Cc2ccccc2C(F)(F)F)[C@H]3c2ccc(CO)cc2)cc1,inactive: 4.71%
19,CCN(CC)C(=O)COc1ccc2c(c1)C(=O)CC(C)(C)O2,inconclusive: 46.5%
20,O=C(Nc1ccc(Cl)cc1)N[C@H]1CC[C@@H](CCn2cc(Cc3ccccc3)nn2)O[C@H]1CO,inactive: 3.65%
21,O=C(c1ccc(-c2ccccc2)c(F)c1)C1CCCN(CCCn2cccn2)C1 (configuration not stated),inconclusive: 41.2%
22,CCc1ccc(-n2c(SCC(=O)c3ccc4c(c3)NC(=O)CO4)nc3ccccc3c2=O)cc1,inconclusive: 35.4%

# From PubChem BioAssay AID651711 (Broad Institute, 2012)
